Results: paper PMC5681660, “Reduced hepatitis B and D viral entry using clinically applied drugs as novel inhibitors of the bile acid transporter NTCP” (Scientific Reports, 2017)
Where a name gives a salt, the structure may show the parent alone. Read-outs that look alike come from different tables or passages of the source. Non-standard residues stand in square brackets, D forms with d. Residues, ends and D or L forms follow the SMILES beside them. pGlu = O=C1CC[C@@H](C(=O)O)N1; Thz = O=C(O)[C@@H]1CSCN1

Legend:
[1] = target: T1, human NTCP (Homo sapiens, UniProt Q14973); experiment: Screening taurocholate uptake assay (96-well, [14C]taurocholate, 10 µM drug); settings: for remaining activity at 10 µM: 10 min, read-out: %NTCP activity
T1 sequence (Q14973 1-349): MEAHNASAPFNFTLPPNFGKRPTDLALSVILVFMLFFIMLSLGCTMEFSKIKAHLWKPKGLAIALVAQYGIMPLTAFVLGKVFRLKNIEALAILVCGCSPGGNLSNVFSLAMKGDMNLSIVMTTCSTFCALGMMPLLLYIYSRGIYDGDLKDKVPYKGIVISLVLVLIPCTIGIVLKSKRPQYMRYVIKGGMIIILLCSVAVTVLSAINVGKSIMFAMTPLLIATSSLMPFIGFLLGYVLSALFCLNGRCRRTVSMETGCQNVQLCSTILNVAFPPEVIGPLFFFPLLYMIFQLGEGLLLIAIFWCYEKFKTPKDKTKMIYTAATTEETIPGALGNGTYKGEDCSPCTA

[2] = target: T1, human NTCP; experiment: Screening fluorescent competitive Myrcludex B-FITC binding assay (96-well, 10 µM drug)
[3] = 0.5 h, read-out: %NTCP binding, Prestwick library screen, Myrcludex B-FITC binding, 10 µM drug
[4] = 0.5 h, read-out: %NTCP binding, Prestwick library screen, 10 µM drug, Myrcludex B-FITC binding
[5] = Prestwick library screen, Myrcludex B-FITC binding, 10 µM drug
[6] = Prestwick library screen, 10 µM drug, Myrcludex B-FITC binding

Compound	remaining activity at 10 µM [1] [%]	remaining activity at 10 µM ([2]; 0.5 h, read-out: %NTCP binding) [%]	also measured
COc1ccc2c3c1O[C@H]1C[C@@H](O)C=C[C@@]31CCN(C)C2 [Galanthamine hydrobromide]	118		remaining activity at 10 µM [2, 3]: 86.8%
CC(C)(C)NC(=O)[C@@H]1CN(Cc2cccnc2)CCN1C[C@@H](O)C[C@@H](Cc1ccccc1)C(=O)N[C@H]1c2ccccc2C[C@H]1O [Indinavir sulfate]	81	67.9	
NCCCCCC(=O)O [Aminocaproic acid]	80.2	79.9	
CN[C@H](CC(C)C)C(=O)N[C@H]1C(=O)N[C@@H](CC(N)=O)C(=O)N[C@H]2C(=O)N[C@H]3C(=O)N[C@H](C(=O)N[C@H](C(=O)O)c4cc(O)cc(O)c4-c4cc3ccc4O)[C@H](O)c3ccc(c(Cl)c3)Oc3cc2cc(c3O[C@@H]2O[C@H](CO)[C@@H](O)[C@H](O)[C@H]2O[C@H]2C[C@](C)(N)[C@H](O)[C@H](C)O2)Oc2ccc(cc2Cl)[C@H]1O [Vancomycin hydrochloride]	35.3	81.4	
CNCCCN1c2ccccc2CCc2ccccc21 [Desipramine hydrochloride]	63.5	75.9	
C#C[C@]1(O)CC[C@H]2[C@@H]3[C@H](C)CC4=C(CCC(=O)C4)[C@H]3CC[C@@]21C [Tibolone]	96.1		remaining activity at 10 µM [2, 4]: 59.5%
CC(C)[N+](C)(CCC(C(N)=O)(c1ccccc1)c1ccccc1)C(C)C [Isopropamide iodide]	97.5		remaining activity at 10 µM [2, 3]: 90.9%
c1ccc(CN(CC2=NCCN2)c2ccccc2)cc1 [Antazoline hydrochloride]	44.5	86.7	
Cn1c(NCCN(CCO)CCCc2ccc([N+](=O)[O-])cc2)cc(=O)n(C)c1=O [Nifekalant]	92	91.3	
CC(CNC1CCCCC1)OC(=O)c1ccccc1 (stereo not drawn) [Hexylcaine hydrochloride]	108	70	
Cc1ncc([N+](=O)[O-])n1CC(C)O (stereo not drawn) [Secnidazole]	97.5	84.8	
CN1C(C(=O)Nc2ccccn2)=C(O)c2ccccc2S1(=O)=O [Piroxicam]	123	77	
CCN(CC)CCOC(=O)C(c1ccccc1)C1CCCCC1 (stereo not drawn) [Drofenine hydrochloride]	106	88.6	
C[C@@H]1[C@H](O)[C@@H](C)/C=C/C=C/CC/C=C/C=C/C=C/C=C/C(O[C@H]2O[C@H](C)[C@@H](O)[C@H](N)[C@@H]2O)CC2O[C@](O)(CC(O)C(O)CCC(O)CC(O)CC(O)CC(=O)O[C@H]1C)CC(O)C2C(=O)O (stereo partly drawn) [Nystatine]			%NTCP activity [1]: 57.0966%; %NTCP binding [2, 5]: 89.5394%
CC(=O)O[C@H]1C[C@@H]2CC[C@@H]3[C@H](CC[C@@]4(C)[C@H]3C[C@H]([N+]3(C)CCCCC3)[C@@H]4OC(C)=O)[C@@]2(C)C[C@@H]1N1CCCCC1 [Vecuronium bromide]	112		remaining activity at 10 µM [2, 3]: 83%
Oc1c(Cl)cc(Cl)c2cccnc12 [Chloroxine]	88.3	84.6	
CC(CCc1ccccc1)NC(C)C(O)c1ccc(O)cc1 (stereo not drawn) [Nylidrin]	94.3	88.3	
O=C1CC[C@@H](C(=O)N2CSC[C@H]2C(=O)O)N1 [Pidotimod] ([pGlu]-[Thz]-OH)	82.5	84.8	
CCCCNc1cc(C(=O)O)cc(S(N)(=O)=O)c1Oc1ccccc1 [Bumetanide]	37.4	71.7	
C[C@H]1C[C@@H]2[C@H]([C@@H](O)C[C@@]3(C)[C@H]2CC[C@]3(O)C(=O)CO)[C@@]2(C)C=CC(=O)C=C12 [Methylprednisolone, 6-alpha]			%NTCP activity ([1]; Prestwick library screen, 10 µM drug, [14C]taurocholate uptake): 51.1636%; %NTCP binding [2, 6]: 71.5885%
O=C(O)Cc1ccc(-c2ccccc2)cc1 [Felbinac]	57.4	117	

Compound	remaining activity at 10 µM [1] [%]	remaining activity at 10 µM ([2]; 0.5 h, read-out: %NTCP binding) [%]	also measured
CCN(CC)Cc1cc(Nc2ccnc3cc(Cl)ccc23)ccc1O.Cl.Cl.O.O [Amodiaquin dihydrochloride dihydrate]			%NTCP activity ([1]; Prestwick library screen, [14C]taurocholate uptake, 10 µM drug): 64.7001%; %NTCP binding [2, 5]: 59.2411%
Nc1ccccc1S(N)(=O)=O [2-Aminobenzenesulfonamide]	49.5	124	
CC(C)(C)NCC(O)c1ccccc1Cl (stereo not drawn) [Tulobuterol]	126	99.8	
CO/N=C(\C(=O)N[C@@H]1C(=O)N2C(C(=O)OC(C)OC(C)=O)=C(COC(N)=O)CS[C@H]12)c1ccco1 (stereo partly drawn) [Cefuroxime axetil]	80.5	73	
Nc1ccc(S(N)(=O)=O)cc1 [Sulfanilamide]	108	69.5	
Clc1cnccn1 [2-Chloropyrazine]	120		remaining activity at 10 µM [2, 3]: 82%
CC1CCc2cc(F)cc3c(=O)c(C(=O)O)cn1c23 (stereo not drawn) [Flumequine]	101	59	
Clc1ccc2c(c1)C(N1CCNCC1)=Nc1ccccc1O2 [Amoxapine]	57.7	86.5	
CC(=O)N[C@@H](CS)C(=O)O [Acetylcysteine]	70.1	97.6	
O=P(O)(O)C(Cl)(Cl)P(=O)(O)O [Clodronate]	80.8	79.1	
[H]/N=C(/NCCCCC)N/N=C/c1c[nH]c2ccc(OC)cc12 [Tegaserod maleate]	97.6	89	
OCC(O)CN1CCN(c2ccccc2)CC1 (racemic) [Dropropizine (R,S)]			%NTCP activity [1]: 31.2029%; %NTCP binding [2, 5]: 84.3257%
Nc1ccc(S(=O)(=O)NC(=O)c2ccccc2)cc1 [Sulfabenzamide]	144	70.5	
NCC(CC(=O)O)c1ccc(Cl)cc1 (racemic) [Baclofen (R,S)]			%NTCP activity [1]: 50.4585%; %NTCP binding [2, 6]: 83.317%
Cc1nc2n(c(=O)c1CCN1CCC(c3noc4cc(F)ccc34)CC1)CCCC2 [Risperidone]	57.8		remaining activity at 10 µM [2, 4]: 99.1%
CC(=O)O[C@H]1C(=O)[C@@]2(C)[C@H]([C@H](OC(=O)c3ccccc3)[C@]3(O)C[C@H](OC(=O)[C@H](O)[C@@H](NC(=O)c4ccccc4)c4ccccc4)C(C)=C1C3(C)C)[C@]1(OC(C)=O)CO[C@@H]1C[C@@H]2O [Paclitaxel]	74.2	84.7	
CN1CCCN(C(c2ccccc2)c2ccc(Cl)cc2)CC1.Cl.Cl (stereo not drawn) [Homochlorcyclizine dihydrochloride]			%NTCP activity [1]: 73.8774%; %NTCP binding [2, 6]: 84.2321%
Cc1oncc1C(=O)Nc1ccc(C(F)(F)F)cc1 [Leflunomide]	92.5	97.9	
COc1cccc(N(C)C(=S)Oc2ccc3c(c2)CCCC3)n1 [Liranaftate]	102		remaining activity at 10 µM [2, 4]: 92.7%
C[N+](C)(CCOc1ccccc1)Cc1ccccc1.O=C([O-])c1cc2ccccc2cc1O [Bephenium hydroxynaphthoate]			%NTCP activity ([1]; screen, 10 µM drug, [14C]taurocholate uptake): 101.229%; %NTCP binding ([2]; screen, 10 µM drug, Myrcludex B-FITC binding): 85.3911%
O=C(CCCCCCC(=O)Nc1ccccc1)NO [Vorinostat]	65.1	99	
